Results published in paper PMC4336329 (PLoS ONE, 2015).
The whole screen tested about 310,000 compounds, of which about 2,200 (0.71%) showed an effect of 50% or more. Effects have a minus sign here. Some of the results follow.

The compounds below were run against human ether-à-go-go-related gene (hERG) potassium channel (human, UniProt Q12809) (assay: primary screen, population patch clamp on CHO cells stably expressing hERG).
human ether-à-go-go-related gene (hERG) potassium channel, sequence (Q12809 whole entry, looked up): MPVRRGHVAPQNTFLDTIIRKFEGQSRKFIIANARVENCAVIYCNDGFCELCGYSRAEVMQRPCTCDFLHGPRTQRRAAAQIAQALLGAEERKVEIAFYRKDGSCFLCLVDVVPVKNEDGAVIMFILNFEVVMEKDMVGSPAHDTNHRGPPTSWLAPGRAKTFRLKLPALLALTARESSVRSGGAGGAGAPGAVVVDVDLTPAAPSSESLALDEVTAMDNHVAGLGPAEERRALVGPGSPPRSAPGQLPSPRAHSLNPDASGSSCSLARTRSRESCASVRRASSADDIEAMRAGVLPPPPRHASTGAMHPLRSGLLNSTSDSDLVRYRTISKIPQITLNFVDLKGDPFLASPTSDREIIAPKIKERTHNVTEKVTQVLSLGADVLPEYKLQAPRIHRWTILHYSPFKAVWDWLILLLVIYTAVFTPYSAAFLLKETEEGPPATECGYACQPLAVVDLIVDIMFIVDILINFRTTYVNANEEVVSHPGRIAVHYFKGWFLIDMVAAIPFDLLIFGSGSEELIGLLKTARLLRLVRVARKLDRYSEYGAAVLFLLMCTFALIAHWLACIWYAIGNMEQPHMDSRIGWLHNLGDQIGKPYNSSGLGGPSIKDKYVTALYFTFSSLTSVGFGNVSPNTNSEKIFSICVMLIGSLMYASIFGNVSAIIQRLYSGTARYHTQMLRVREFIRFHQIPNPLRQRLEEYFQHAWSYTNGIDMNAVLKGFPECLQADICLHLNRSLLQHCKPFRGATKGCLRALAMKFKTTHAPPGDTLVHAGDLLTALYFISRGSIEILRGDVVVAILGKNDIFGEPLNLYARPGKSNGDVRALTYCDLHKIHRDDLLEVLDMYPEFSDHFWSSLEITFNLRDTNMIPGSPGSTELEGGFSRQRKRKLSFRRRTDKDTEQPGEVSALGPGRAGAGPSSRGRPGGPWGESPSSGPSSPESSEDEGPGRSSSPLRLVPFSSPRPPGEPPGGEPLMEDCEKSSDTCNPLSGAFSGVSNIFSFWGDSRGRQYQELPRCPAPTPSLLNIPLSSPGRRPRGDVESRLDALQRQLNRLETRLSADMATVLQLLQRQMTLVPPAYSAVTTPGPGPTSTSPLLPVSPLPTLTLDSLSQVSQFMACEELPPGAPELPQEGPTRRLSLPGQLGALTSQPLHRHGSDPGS
For `COc1cc(/C=C/C(=O)NC(C)C2CC3CCC2C3)cc(OC)c1OC` (centres unmarked), the “hERG current change (%, negative = inhibition) at 1uM” value was 11.8%.
In the case of `COC(=O)c1ccc(NC(=O)C2C3C=CC(O3)C2C(=O)O)cc1` (centres unmarked), the “hERG current change (%, negative = inhibition) at 1uM” value is reported as 13.7%.
For `CCOC(=O)C1=C(C)Nc2nc(SCC)nn2C1c1ccc(OC)cc1` (centres unmarked), the “hERG current change (%, negative = inhibition) at 1uM” value was 16.1%.
With `O=C(CN1C(=O)CC(c2ccccc2)=Nc2ccccc21)NC1CCCCC1` the “hERG current change (%, negative = inhibition) at 1uM” value was 1.91%.
For `O=C(O)Cn1c(O)c(C2=c3ccccc3=NC2=O)sc1=O`, the “hERG current change (%, negative = inhibition) at 1uM” value was 4.45%.
With `Cc1ccc(C)c(N2N=C(C(=O)Nc3ccc(S(=O)(=O)N4CCCC4)cc3)CCC2=O)c1` the “hERG current change (%, negative = inhibition) at 1uM” value was 3.72%.
For `O=C(C1=C[C@H](c2coc3ccccc3c2=O)C[C@H](OCCCCO)O1)N1CCOCC1`, the “hERG current change (%, negative = inhibition) at 1uM” value was 9.03%.
In the case of `N#Cc1c(/N=C/c2cccs2)sc2c1CCC2`, the “hERG current change (%, negative = inhibition) at 1uM” value is reported as 6.41%.
In the case of `COC(=O)C1=C(C)N(C)C(=O)/C1=C\c1cccs1`, the “hERG current change (%, negative = inhibition) at 1uM” value is reported as 12.6%.
In the case of `CCN(CC(=O)Nc1ccccc1Br)Cc1nc2ccccc2c(=O)[nH]1`, the “hERG current change (%, negative = inhibition) at 1uM” value is reported as 9.66%.
In the case of `CCOC(=O)c1c(-c2ccccc2)csc1NC(=O)c1cccc(N2C(=O)CCC2=O)c1`, the “hERG current change (%, negative = inhibition) at 1uM” value is reported as 6.87%.
`CN(C)C(=O)Oc1cc(OC(=O)N(C)C)cc(C(O)CNC(C)(C)C)c1.Cl` (centres unmarked) was tested, and the “hERG current change (%, negative = inhibition) at 1uM” value was 9%.
For `COc1ccc(C(CNc2ncnc3sc(C)c(C)c23)N(C)C)cc1` (centres unmarked), the “hERG current change (%, negative = inhibition) at 1uM” value was -19.9%.
In the case of `COc1ccc(C(=O)Oc2ccc(/C=N/O)cc2)cc1`, the “hERG current change (%, negative = inhibition) at 1uM” value is reported as 5.68%.
`COc1cc(CNC(=O)c2cccc(COc3ccc(Cl)cc3)c2)cc(OC)c1` was tested, and the “hERG current change (%, negative = inhibition) at 1uM” value was 14.9%.
For `CCOC(=O)C1=C(N)OC2=C(C(=O)CCC2)C1c1ccc(C)s1` (centres unmarked), the “hERG current change (%, negative = inhibition) at 1uM” value was -29.6%.
`COC(=O)CCCC(=O)Nc1ccc(Cl)c(Cl)c1` was tested, and the “hERG current change (%, negative = inhibition) at 1uM” value was 10.1%.
In the case of `COc1ccc(C(=O)Cn2c(Br)nc3c2c(=O)n(C)c(=O)n3C)cc1`, the “hERG current change (%, negative = inhibition) at 1uM” value is reported as -5.07%.
For `O=C(Nc1c(F)cccc1F)c1ccc2c(c1)CCN2S(=O)(=O)c1ccccc1`, the “hERG current change (%, negative = inhibition) at 1uM” value was 13.5%.
With `O=C(CN1CCCCCC1)Nc1ccccc1Oc1ccccc1` the “hERG current change (%, negative = inhibition) at 1uM” value was 8.69%.
`Cc1cc(C)n2cc(CSc3nc4ccccc4[nH]3)nc2n1` was tested, and the “hERG current change (%, negative = inhibition) at 1uM” value was 6.59%.
For `Fc1ccc(N=C2NN=C(c3cc(F)ccc3F)CS2)cc1`, the “hERG current change (%, negative = inhibition) at 1uM” value was -4.22%.
In the case of `Cn1cnnc1Sc1ccc(/C=C(\CC(=O)O)c2nc3ccccc3s2)cc1[N+](=O)[O-]`, the “hERG current change (%, negative = inhibition) at 1uM” value is reported as 9.35%.
For `Cc1c(C(=O)Nc2ccc(Cl)cc2)c2ccccn2c1C(=O)c1ccc(F)cc1`, the “hERG current change (%, negative = inhibition) at 1uM” value was 11.4%.
With `Cc1cc(C)c[n+](-c2nc([O-])sc2C=O)c1` the “hERG current change (%, negative = inhibition) at 1uM” value was 9.87%.
With `Cc1ccc(C2C=NN(c3ccccc3)C2=O)cc1` (centres unmarked) the “hERG current change (%, negative = inhibition) at 1uM” value was 14.8%.
In the case of `COc1ccc2nc(Cl)c(/C=N/Nc3ccccn3)cc2c1`, the “hERG current change (%, negative = inhibition) at 1uM” value is reported as 7.79%.
In the case of `COCCn1c(SCC(=O)NCC2CCCO2)nc2c(c1=O)SC(C)C2` (centres unmarked), the “hERG current change (%, negative = inhibition) at 1uM” value is reported as 19.7%.
In the case of `CCC1=C(OC(=O)N(CC)CC)N2C(=O)OC(=NCC(=O)OC)[C@]2(C)[C@H]2C1=CC[C@H]1C(=O)N(CC(=O)OC)C(=O)[C@H]12`, the “hERG current change (%, negative = inhibition) at 1uM” value is reported as 7.07%.
`COC(=O)CSc1snnc1-c1ccc(Cl)c(Cl)c1` was tested, and the “hERG current change (%, negative = inhibition) at 1uM” value was 10.2%.
In the case of `C=C[C@@H]1c2ccccc2N(S(=O)(=O)c2ccc(C)cc2)[C@H](c2ccc(C(F)(F)F)cc2)C1(C#N)C#N`, the “hERG current change (%, negative = inhibition) at 1uM” value is reported as -2.41%.
With `O=C(CC1C(=O)NCCN1CC1CCCCC1)NCc1ccc(F)cc1F` (centres unmarked) the “hERG current change (%, negative = inhibition) at 1uM” value was 9.55%.
In the case of `Cc1ccc2cc3cc(C(=O)N4CCC5(CC4)OCCO5)oc3nc2c1`, the “hERG current change (%, negative = inhibition) at 1uM” value is reported as 9.5%.
In the case of `COc1ccc(O)c(/C=N/Nc2nc(C)cc(-c3ccccc3)n2)c1`, the “hERG current change (%, negative = inhibition) at 1uM” value is reported as 12.7%.
For `CC(=O)c1cccc(NC(=O)CCc2nc3sc4c(c3c(=O)[nH]2)CCCC4)c1`, the “hERG current change (%, negative = inhibition) at 1uM” value was 4.71%.
In the case of `CCN(Cc1ccccc1)S(=O)(=O)c1c(C)[nH]c(C)c1C(=O)N1CCCC1`, the “hERG current change (%, negative = inhibition) at 1uM” value is reported as 7.88%.
`NC(=O)c1cc(C(=O)c2cccc(Cl)c2Cl)c[nH]1` was tested, and the “hERG current change (%, negative = inhibition) at 1uM” value was 3.46%.
With `CCOC(=O)c1ccc(Cl)c(NC(=O)c2ccc(-c3ccccc3)cc2)c1` the “hERG current change (%, negative = inhibition) at 1uM” value was 15.2%.
With `CN(C)CCCN(C(=O)C1=COCCO1)c1nc2ccc(Br)cc2s1.Cl` the “hERG current change (%, negative = inhibition) at 1uM” value was -25.1%.
In the case of `O=[N+]([O-])c1cccc(-c2nnc3ccc4ccccc4n23)c1`, the “hERG current change (%, negative = inhibition) at 1uM” value is reported as 6.4%.
For `O=C(/C=C/c1cccc([N+](=O)[O-])c1)Nc1ccc(NC(=O)c2cccs2)cc1`, the “hERG current change (%, negative = inhibition) at 1uM” value was 12.4%.
In the case of `COc1ccc(/C=C2\SC(=S)N(CCCC(=O)Nc3ccccc3C(=O)O)C2=O)cc1OC`, the “hERG current change (%, negative = inhibition) at 1uM” value is reported as 10.6%.
`CCn1c(SCC(=O)c2ccccc2)nnc1-c1cnccn1` was tested, and the “hERG current change (%, negative = inhibition) at 1uM” value was 6.83%.
With `O=C(c1ccc([N+](=O)[O-])cc1)N1CCCC1` the “hERG current change (%, negative = inhibition) at 1uM” value was 9.66%.
With `O=C1Nc2ccccc2C(=O)N2CCCCC12` (centres unmarked) the “hERG current change (%, negative = inhibition) at 1uM” value was 7.83%.
`Cn1c(-c2ccccc2)cnc1NCc1cccc([N+](=O)[O-])c1` was tested, and the “hERG current change (%, negative = inhibition) at 1uM” value was -27.7%.
For `CC1CCCC(NC(=O)C2CCN(S(=O)(=O)c3cccc4nonc34)CC2)C1C` (centres unmarked), the “hERG current change (%, negative = inhibition) at 1uM” value was 7.74%.
For `Cc1ccc2cccc(NC(=S)NC(=O)c3ccnn3C)c2n1`, the “hERG current change (%, negative = inhibition) at 1uM” value was 7.23%.
With `Cc1cc(=O)n(C2CCS(=O)(=O)C2)[nH]1` (centres unmarked) the “hERG current change (%, negative = inhibition) at 1uM” value was 8.53%.
In the case of `CC1=Nn2c(nnc2-c2n[nH]c3c2CCC3)SC1`, the “hERG current change (%, negative = inhibition) at 1uM” value is reported as 9.88%.
With `CS(=O)(=O)N1CCN(c2ccccc2NC(=S)NC(=O)c2ccco2)CC1` the “hERG current change (%, negative = inhibition) at 1uM” value was 1.56%.
For `Clc1ccc(-n2ncc3c(NCc4ccccn4)ncnc32)cc1`, the “hERG current change (%, negative = inhibition) at 1uM” value was 11%.
For `COc1ccc2c3c(c(=O)oc2c1OCC(=O)C(C)(C)C)CCCC3`, the “hERG current change (%, negative = inhibition) at 1uM” value was 12.1%.
With `CN(C)S(=O)(=O)c1ccc(NC(=O)CSc2n[nH]c(=O)n2C2CC2)cc1` the “hERG current change (%, negative = inhibition) at 1uM” value was 22.3%.
For `CCOC(=O)Cc1csc(NC(=O)/C=C/c2ccco2)n1`, the “hERG current change (%, negative = inhibition) at 1uM” value was 11.1%.
`Cn1c(=O)c2c(SCC(=O)Nc3ccccc3F)nc(C3CC3)nc2n(C)c1=O` was tested, and the “hERG current change (%, negative = inhibition) at 1uM” value was -0.358%.
